# Measurements published in PubChem BioAssay AID651820 (National Center for Advancing Translational Sciences (NCATS), 2012).
# Where “and” joins values, the source holds several entries; their conditions need not be identical. Equal entries are not always repeated. Screen size: about 340,000 compounds; about 12,000 (3.5%) were called active. Inconclusive means that the source gave no clear call. Such entries were picked first, then a sample of the others. Calls follow the shape of the dose curve; as a rule, active = well fitted inhibition curve with a large enough effect; inconclusive = small, poorly fitted or top-dose-only effect, or another doubt; inactive = no such curve, though single readings can be large or run the other way. Potencies beside an inconclusive call are fits to weak or partial responses and may not hold up.
# Experiment: qHTS Assay for Inhibitors of Hepatitis C Virus (HCV)
# Conditions: Huh7.5.1 HCVcc-Cre (HCVcc is cell-culture hepatitis C virus) infection, luciferase reporter, 44 h; activity change, negative = inhibition: at 41.8 µM (top of the series) unless noted
# In short: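 Cells (1,000/well) were plated 4 h before compound, then infected with HCVcc-Cre virus (~0.5 moi). After 44 h further culture, infection was read as luciferase luminescence following a 15 min substrate incubation at room temperature.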
# % is scaled to controls: 0 for no effect and ±100 for the full control effect; potency is read from the fitted curve at half-maximal effect; tags tell the direction and shape of the fitted curve.
Compound,Potency,"activity change, negative = inhibition"
Cc1cc([N+](=O)[O-])ccc1NCc1cccc([N+](=O)[O-])c1,"inconclusive: 11.2 µM [inhibitor, single point]",–
Cc1nc2c(ccc3nc(NC(=O)Cc4cccc5ccccc45)sc32)s1,"inconclusive: 3.55 µM [inhibitor, full curve]",–
OC(CNCc1ccc(F)cc1)(c1ccc(F)cc1)c1ccc(F)cc1,"inconclusive: 22.4 µM [inhibitor, single point]",–
COc1ccc(Cl)cc1C(=O)C1CCCN(Cc2cnc(N3CCOCC3)s2)C1 (stereo unspecified),"inconclusive: 17.8 µM [inhibitor, single point]",–
COc1ccccc1NC(=O)Cn1nnc(-c2ccccc2NC(=O)c2ccco2)n1,"inconclusive: 3.55 µM [inhibitor, partial curve]",–
C=CCSc1nc2sc3c(c2c(=O)n1CC)CCc1ccccc1-3,"inconclusive: 10 µM [inhibitor, partial curve, poor fit]",–
CN(C)c1ccc(CNC2CC(C)(C)NC(C)(C)C2)cc1,"inconclusive: 7.94 µM [inhibitor, partial curve]",–
CCOC(=O)[C@]12Cc3cc(C)ccc3[C@H]1N(Cc1ccccc1)C(=O)c1ccccc12,–,inactive: -11.6% [at 8.37 µM]
Cc1nc(NC(=O)C2CC2)sc1C(=O)Nc1ccccc1Cl,"inconclusive: 22.4 µM [inhibitor, single point]",–
CCCCOc1cccc(OCCCC)c1C(=O)Nc1cc(C)on1,"inconclusive: 25.1 µM [inhibitor, partial curve]",–
CN1C(=O)[C@@H]2C[C@@]3([C@@]45C[C@H]6C(=O)N(C)[C@@H](Cc7ccccc7)C(=O)N6[C@@H]4Nc4ccccc45)c4ccccc4N[C@H]3N2C(=O)[C@@H]1Cc1ccccc1,"inconclusive: 0.562 µM [inhibitor, partial curve, poor fit]",–
NC(=O)c1cccnc1Nc1ccccc1Cl,"inconclusive: 7.08 µM [inhibitor, partial curve]",–
O=C1CCCC2=C1C(c1ccc(OS(=O)(=O)c3ccc(Cl)cc3)cc1)C1=C(CCCC1=O)O2,active: 12.6 µM,–
O=C(c1ccc(C(F)(F)F)cc1)N1CCC(=O)N(C(COCc2ccc(C(F)(F)F)cc2)Cc2ccccc2)CC1 (stereo unspecified),inactive,–
NS(=O)(=O)c1ccc(NC(=O)CSc2nc3ccccc3n2-c2ccccc2)cc1,"inconclusive: 22.4 µM [inhibitor, single point]",–
COC(=O)c1ccc(-c2ccco2)n1Cc1nc(-c2ccc(OC)c(OC)c2)oc1C,"inconclusive: 31.6 µM [inhibitor, single point] and inconclusive: 22.4 µM [inhibitor, single point]",–
